Results on 44 sequences are retold here after the supplement of paper PMC11417369.

± gives the standard deviation of the averaged measurements. Some of the results follow.

The assay deals with PfAP2-EXP AP2 domain (GST-tagged). In words: gcPBM binding intensity (ln(normalized median fluorescence intensity)); higher = stronger DNA binding. The method in brief: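 Alexa488 anti-GST antibody, scanned at 488 nm, detected GST-tagged P. falciparum DNA-binding domains that had been expressed in E. coli and incubated for 1 h on an Agilent 4 × 180k array. The array carried primer-extended double-stranded 36-bp intergenic genomic probes and negative controls. Binding intensity is the highest Masliner-normalised natural-log median intensity across replicate spots of either orientation of each probe.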
With “AATGAAATAAAATAAAGTACATATATGTAAAAGTAG [XGTACX_site5650]”, the “gcPBM binding intensity (ln)” value was found to be 9.3 ± 0.42.

Take “AATTGAAAAGAATGAAGTACACATTTGATGATACAT [XGTACX_site5182]”: the “gcPBM binding intensity (ln)” value amounted to 8.62 ± 0.33.

With “TAAATAAATTTATACACACACACACCGATATATATA [CACACA_site4622]”, the “gcPBM binding intensity (ln)” value came to 8.82 ± 0.56.

As to “AATAAAAGATCATTTATTCTTTTTTTTCTTTTTAAA [CACACA_negctrl_site1256]”, the “gcPBM binding intensity (ln)” value worked out at 8.03 ± 0.61.

“GAATGCCTTGAAAATAGTACAATTAAGAAAAAATAC [XGTACX_site8002]”: the “gcPBM binding intensity (ln)” value came to 8.81 ± 0.27.

Regarding “AAAATACATAAACGTTCACACATTTAAGATAACGAG [CACACA_site5345]”, the “gcPBM binding intensity (ln)” value turned out to be 8.61 ± 0.33.

For the sequence “GAGTTTACACTCCCTTGTACATATTCATTTTTATTC [XGTACX_site5208]”, the “gcPBM binding intensity (ln)” value worked out at 9.06 ± 0.4.

Take “TATATATATAATATATGTACATATTAATTATGTATA [XGTACX_site5366]”: the “gcPBM binding intensity (ln)” value stood at 8.79 ± 0.13.

As to “TGAATAAATATATATACACACATATATGTATATATT [CACACA_site1642]”, the “gcPBM binding intensity (ln)” value is 8.05 ± 0.42.

Take “AATTAAATAAATGTATGTACATAATAAATATGTATT [XGTACX_site4379]”: the “gcPBM binding intensity (ln)” value was determined as 8.34 ± 0.27.

With “TGAAAATAGTTAATTTGTACACAAAAATTAAGAAAA [XGTACX_site5794]”, the “gcPBM binding intensity (ln)” value was 8.54 ± 0.35.

In the case of “TTTTATTTTATAAAAATAAAAAAAAAATTATTACAA [TGCATGCA_negctrl_site508]”, the “gcPBM binding intensity (ln)” value worked out at 8.09 ± 0.4.

Regarding “TATGAAAATATATATTGTACAGAATCTATAAAAAAT [XGTACX_site8030]”, the “gcPBM binding intensity (ln)” value came out at 8.6 ± 0.35.

Turning to “TTTTCGATGTTGGTAGGATGTATGGTACACGTAGTA [TGCATGCA_negctrl_site61]”, the “gcPBM binding intensity (ln)” value amounted to 8.67 ± 0.44.

Take “AAAGAAATATATACAAAAATATGAACAATTTATTAT [XGTACX_negctrl_site78]”: the “gcPBM binding intensity (ln)” value amounted to 8.38 ± 0.32.

As for “GAAAATTTTTGGTGTACACAAAAAAATCCAAAAAAA [CACACA_site5042]”, the “gcPBM binding intensity (ln)” value came to 8.93 ± 0.042.

With “TATGATTGTTTACGTTGTACAGCTGAATTGTTCTTA [XGTACX_site8114]”, the “gcPBM binding intensity (ln)” value came out at 8.7 ± 0.51.

“TAAGAAAATATTTATGTATGCATGTCCTAATATTTC [TGCATGCA_site295]”: the “gcPBM binding intensity (ln)” value was 8.44 ± 0.3.

Take “AAAAAAAATTAATTAGTGCAAAATATATACAAAATA [GTGCAC_site9762]”: the “gcPBM binding intensity (ln)” value came out at 8.93 ± 0.29.

Take “ATATAAAATATTAGTAGTACCATTAACAGTATTGTT [XGTACX_site5912]”: the “gcPBM binding intensity (ln)” value turned out to be 8.35 ± 0.31.

With “ATTAAGATGTATATATGTACATATTACATACATATA [XGTACX_site8657]”, the “gcPBM binding intensity (ln)” value turned out to be 8.39 ± 0.35.

Regarding “TATGAAAAAAAAAATACACACACGAGTTGTTATACA [CACACA_site3188]”, the “gcPBM binding intensity (ln)” value came out at 8.33 ± 0.42.

“AATGAAATATGGATGGGTACACATTTGATTTTATTA [XGTACX_site6155]”: the “gcPBM binding intensity (ln)” value is 8.39 ± 0.39.

As to “TGTATGTATAGAAACACACATACATATATATAATAT [CACACA_site1405]”, the “gcPBM binding intensity (ln)” value came to 8.41 ± 0.33.

As for “ATATATATAAACATATGTACACATATATATAATACA [XGTACX_site1848]”, the “gcPBM binding intensity (ln)” value turned out to be 8.66 ± 0.3.

In the case of “ATTTGTTTATAGGCCATAAAATATTTAATTCATTTG [CACACA_negctrl_site1824]”, the “gcPBM binding intensity (ln)” value was found to be 8.4 ± 0.41.

“TTTTTCATAAATATATGTACATATATTTTATATAAC [XGTACX_site3402]”: the “gcPBM binding intensity (ln)” value stood at 8.68 ± 0.37.

“AGTATTATATTTGTATGTACGTAGTAATATATAAAA [XGTACX_site528]”: the “gcPBM binding intensity (ln)” value worked out at 8.49 ± 0.3.

Regarding “ATTTATATTTATGATACACACACGTATATTCACATA [CACACA_site460]”, the “gcPBM binding intensity (ln)” value turned out to be 8.61 ± 0.34.

As for “ATATATATATTTTTATGAGGCATAAGTAATATTTTT [TGCATGCA_negctrl_site317]”, the “gcPBM binding intensity (ln)” value worked out at 9.02 ± 0.028.

Consider “AACAAGAAAAAAAAAAAAAAAAAAAAAAAATATTTT [XGTACX_negctrl_site428]”, for which the “gcPBM binding intensity (ln)” value is 8.13 ± 0.3.

Turning to “TTTTTATTTTTTTAGTATACGTACTAGGTTTGTTCT [XGTACX_site645]”, the “gcPBM binding intensity (ln)” value turned out to be 8.8 ± 0.47.

As to “ATATATTTATATATATGTACTTAAAACATTTCGATG [XGTACX_site328]”, the “gcPBM binding intensity (ln)” value stood at 8.2 ± 0.38.

In the case of “AATGTAATATAAATATGTACATAATATATATAATTA [XGTACX_site4762]”, the “gcPBM binding intensity (ln)” value was 8.44 ± 0.34.

As for “AGAAAGAAAGAATACACACACACATATATAAATATC [CACACA_site7716]”, the “gcPBM binding intensity (ln)” value came to 8.95 ± 0.45.

For ATTATCAATATGAAGGTGCATTTAAATAATATTTAC, the “gcPBM binding intensity (ln)” value was 8.89 ± 0.26.

“TATATTCTTTATAGGTGTACTTAATAAATAAAAAAT [XGTACX_site5378]”: the “gcPBM binding intensity (ln)” value came out at 8.63 ± 0.2.

Take “TATCTAGTTACTCCTTGTACATAATAAATGATTTTT [XGTACX_site5674]”: the “gcPBM binding intensity (ln)” value came to 8.53 ± 0.42.

Turning to “TATGAACATAAATTTGCACACTGGATATAATATATA [CACACA_site2155]”, the “gcPBM binding intensity (ln)” value amounted to 8.61 ± 0.38.

Consider “TATATATATGTGTTTACACACAATAATGAATTAAAA [CACACA_site4659]”, for which the “gcPBM binding intensity (ln)” value was found to be 8.29 ± 0.38.

Regarding “ACTAAACTTTTATGTACACACATATAACATTAATTT [CACACA_site5276]”, the “gcPBM binding intensity (ln)” value stood at 8.63 ± 0.22.

In the case of “TACAAAATGGGGAACACACACATATATATATATATA [CACACA_site3844]”, the “gcPBM binding intensity (ln)” value is 10 ± 0.42.

As to “TTGGTACCTATAGATACACACATATATACCTATATA [CACACA_site5812]”, the “gcPBM binding intensity (ln)” value worked out at 8.4 ± 0.49.

Consider “TACGTAAAAATAGGACGTACTTATTTAGAAACCATA [XGTACX_site2498]”, for which the “gcPBM binding intensity (ln)” value came out at 8.35 ± 0.028.
